About 14,000 (4.5%) of roughly 310,000 compounds showed an effect of 50% or more. The effect is printed as a negative number. The list shows a part of the results.
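Also: peak tail current of the secondary pulse compared with the same well before compound.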

Chain of human ether-à-go-go-related gene (hERG) potassium channel (Q12809 whole entry, looked up): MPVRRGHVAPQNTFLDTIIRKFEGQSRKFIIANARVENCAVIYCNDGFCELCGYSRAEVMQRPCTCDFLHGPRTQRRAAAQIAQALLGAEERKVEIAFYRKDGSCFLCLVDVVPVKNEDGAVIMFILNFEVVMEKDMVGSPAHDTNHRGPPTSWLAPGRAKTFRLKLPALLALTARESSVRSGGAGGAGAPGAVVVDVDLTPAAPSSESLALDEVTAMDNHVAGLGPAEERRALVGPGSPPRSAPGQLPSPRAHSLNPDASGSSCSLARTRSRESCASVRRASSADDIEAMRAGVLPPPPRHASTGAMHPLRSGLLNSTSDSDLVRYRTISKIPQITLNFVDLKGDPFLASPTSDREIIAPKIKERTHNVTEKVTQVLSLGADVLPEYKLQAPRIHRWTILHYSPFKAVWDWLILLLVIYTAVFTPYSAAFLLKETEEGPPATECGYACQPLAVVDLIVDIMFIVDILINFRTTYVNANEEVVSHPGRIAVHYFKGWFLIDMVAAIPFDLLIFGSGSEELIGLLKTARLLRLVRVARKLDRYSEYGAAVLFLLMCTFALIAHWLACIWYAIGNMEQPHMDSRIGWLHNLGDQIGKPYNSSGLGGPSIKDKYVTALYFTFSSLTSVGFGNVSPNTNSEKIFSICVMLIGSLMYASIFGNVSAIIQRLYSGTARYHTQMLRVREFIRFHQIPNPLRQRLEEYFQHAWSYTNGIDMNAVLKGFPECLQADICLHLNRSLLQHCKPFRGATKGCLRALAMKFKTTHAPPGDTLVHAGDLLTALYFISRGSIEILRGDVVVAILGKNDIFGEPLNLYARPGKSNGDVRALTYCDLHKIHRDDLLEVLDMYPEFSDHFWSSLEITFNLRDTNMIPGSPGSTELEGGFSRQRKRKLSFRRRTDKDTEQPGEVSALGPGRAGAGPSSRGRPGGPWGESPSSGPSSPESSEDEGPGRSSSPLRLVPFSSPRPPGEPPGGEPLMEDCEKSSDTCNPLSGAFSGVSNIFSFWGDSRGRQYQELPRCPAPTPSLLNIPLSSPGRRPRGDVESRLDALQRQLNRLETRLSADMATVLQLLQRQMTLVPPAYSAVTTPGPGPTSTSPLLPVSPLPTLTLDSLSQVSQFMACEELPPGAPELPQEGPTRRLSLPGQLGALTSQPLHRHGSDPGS

The experiment has as its target human ether-à-go-go-related gene (hERG) potassium channel (human, UniProt Q12809). Briefly: primary screen, population patch clamp on CHO cells stably expressing hERG.
As to `Cc1ccc(N/C(N)=N/c2nc(C(F)(F)F)cc(C(F)(F)F)n2)cc1`, the “hERG current change (%, negative = inhibition) at 10uM” value is listed as 18.9%.

With `CCOC(=O)CN1C(=O)C(=O)N(Cc2ccccc2F)C1=O`, the “hERG current change (%, negative = inhibition) at 10uM” value stood at 13.4%.

On to `CC(=O)Nc1ccc(NC(=O)COC(=O)c2ccc(C)s2)cc1`, for which the “hERG current change (%, negative = inhibition) at 10uM” value worked out at 8.92%. For the compound `Cc1nc2ccccc2c(=O)n1-c1ccc(-c2ccccc2)cc1`, the “hERG current change (%, negative = inhibition) at 10uM” value was 2.92%. With `O=C(Cn1nnc2ccccc21)N1CCCCC1` the figure was 2.94%; with `O=C1CCC([N+](=O)[O-])C(c2ccccc2Br)N1` (centres unmarked), 24.9%; with `CCN(C(=S)Nc1cccnc1)c1ccccc1`, 4.09%. With `CCOc1ccccc1-n1c(O)c(C=Nc2c(C)n(C)n(-c3ccccc3)c2=O)c(=O)[nH]c1=O` the figure was 0.307%; with `CCCCn1c(N)c(N(CC(C)C)C(=O)CCCc2cccs2)c(=O)[nH]c1=O`, -9.44%.

Take `CCOC(=O)C1(Cc2cccc(F)c2)CCN(Cc2cn(CC)nc2C)CC1`: the “hERG current change (%, negative = inhibition) at 10uM” value is -38%. With `CC(=O)c1c(C)[nH]c(C(=O)Nc2nc(C)cs2)c1C` the figure was -14.5%; with `CSc1nnc(NC(=O)c2ccc(S(=O)(=O)N(C)C)cc2)s1`, 18.2%; with `COc1ccc(C[C@H]2CN3C(=NC[C@@H]3C(C)C)N2C[C@H](C)NC(=O)c2ccc(C)c(Br)c2)cc1`, -74.5%. With `COC(=O)c1ccc(C)c(NS(=O)(=O)c2cn(C)nc2C)c1` the figure was 4.54%; with `CCc1nc(SCC(=O)NNC(=O)C(C)C)c2ccccc2n1`, 15%.

With `CC(C)NC(=O)Cn1c(=O)cnc2ccccc21`, the “hERG current change (%, negative = inhibition) at 10uM” value is recorded as -2.78%. With `Cc1cc(=O)n2c(-c3ccccc3C)n[nH]c2n1` the figure was -15.3%; with `COc1ccc(/C=N/Nc2ncc(Br)cn2)c(OC)c1`, 27.2%; with `Cc1cc(C)n(CC2CC(=O)N(c3ccc(Cl)c(Cl)c3)C2=O)n1` (centres unmarked), -11.4%. With `COc1ccc(S(=O)(=O)Nc2ccc3c(c2)N(C(C)=O)CCC3)cc1` the figure was -1.26%. With `O=C(c1ccc(Cl)cc1)N(c1ccccn1)C1CCCCC1` the figure was 7.05%. In the case of `Cc1ccc(S(=O)(=O)N2CCN(C(=O)COC(=O)COc3cccc4c3OC(C)(C)C4)CC2)cc1`, the “hERG current change (%, negative = inhibition) at 10uM” value is -1.97%. `CCNC(=S)N1CCCCC1CO` (centres unmarked): the “hERG current change (%, negative = inhibition) at 10uM” value turned out to be 3.85%. The value for `CN(C)c1ccc(C(=O)c2ccccc2C(=O)O)cc1[N+](=O)[O-]` was 3.29%. Turning to `Cc1noc(C)c1C(=O)Nc1ccccn1`, the “hERG current change (%, negative = inhibition) at 10uM” value is recorded as -8.39%. Take `Fc1ccc(-c2nnsc2Sc2ccccn2)cc1`: the “hERG current change (%, negative = inhibition) at 10uM” value worked out at 13.5%.

Regarding `CC1(C)CC(=O)C2=C(C1)NCN(Cc1ccc3c(c1)OCO3)C2`, the “hERG current change (%, negative = inhibition) at 10uM” value is reported as -1.04%. For the compound `COc1cc(CNc2ccccc2SC)ccc1O`, the “hERG current change (%, negative = inhibition) at 10uM” value came out at 12.8%. On to `Cc1ccc2nc(-c3ccc(NS(C)(=O)=O)cc3)cc(-c3ccccc3)c2c1`, for which the “hERG current change (%, negative = inhibition) at 10uM” value came to 9.27%. With `COc1cc(C(C)=O)ccc1Oc1ncnc2c1cnn2-c1ccc(C)c(C)c1` the figure was 7.86%; with `CCOC(=O)c1cnn(-c2cc(Oc3ccccc3C)ncn2)c1N`, 14.4%. With `CCOc1ccccc1Oc1coc2cc(OC(=O)c3ccco3)ccc2c1=O` the figure was -10.7%; with `O=C(Nc1ccc(Cl)cc1)c1ccsn1`, 7.58%; with `Cl.NC(=O)C1CCN(C(c2ccccc2F)c2nnnn2Cc2ccco2)CC1` (centres unmarked), 11.1%. Regarding `CSc1sc(C(=O)Nc2ccc(F)cc2F)c2c1C=CCC2`, the “hERG current change (%, negative = inhibition) at 10uM” value turned out to be 1.63%.

Turning to `O=C(NCCc1ccccc1)NC1CCCCC1`, the “hERG current change (%, negative = inhibition) at 10uM” value is reported as 13.3%. On to `Cc1ccc(C)c(N2CCN(C(=O)CCNS(=O)(=O)c3ccc4c(c3)oc(=O)n4C)CC2)c1`, for which the “hERG current change (%, negative = inhibition) at 10uM” value was -27.2%. With `CCCNC(=O)NC(=O)c1cnccc1C(F)(F)F` the figure was 13.4%; with `CCN(CC)S(=O)(=O)c1cccc(C(=O)OCC(=O)c2ccc3c(c2)NC(=O)CO3)c1`, -15.3%.

Regarding `CCN1C(=S)N[C@@H](CCc2ccccc2)[C@H](C(=O)OC)[C@H]1C`, the “hERG current change (%, negative = inhibition) at 10uM” value amounted to 0.0847%. With `Cc1n[nH]c(=S)n(NC(=O)CC(=O)Nn2c(=S)[nH]nc(C)c2=O)c1=O` the figure was 45.4%; with `O=C(NCCCO)NC12CC3CC(CC(C3)C1)C2`, -9.93%. With `COc1ccc(C(=O)NCc2ccccn2)cc1[N+](=O)[O-]` the figure was -0.439%; with `O=C(N/N=C/c1cc([N+](=O)[O-])ccc1O)/C(=C\c1cccs1)NC(=O)c1ccccc1`, -41.2%; with `CNCCc1ccc(OC)c(OC)c1`, 19.4%. With `Cc1ccc(-n2cc(CNCCCn3cccn3)c(-c3cccc(C)c3)n2)cc1` the figure was -71.6%; with `CCNC(=S)NNC(=O)c1csc(CC)c1`, -4.58%. On to `O=S(=O)(c1cc(Cl)ccc1Cl)N1CCC2(CC1)OCCO2`, for which the “hERG current change (%, negative = inhibition) at 10uM” value is -42.1%. The value for `COc1ccc(N2CCN(C(CNC(=O)C(=O)NCc3ccc4c(c3)OCO4)c3ccco3)CC2)cc1` (centres unmarked) was -0.557%; that for `COc1ccc2c(c1OC)CCC2=O` was -15.5%. With `CCN(CC)S(=O)(=O)c1cccc(C(=O)N/N=C/c2ccc([N+](=O)[O-])o2)c1` the figure was -37%.

Consider `Cc1ccc(Cl)cc1NS(=O)(=O)c1cn(C)nc1C`, for which the “hERG current change (%, negative = inhibition) at 10uM” value is 2%. `Cc1ccc(-c2nc(SCC(=O)Nc3ccccc3OC(F)F)c3c(C)c(C(=O)O)sc3n2)cc1`: the “hERG current change (%, negative = inhibition) at 10uM” value was determined as 11.2%. With `COc1ccc(C(=O)NC(=S)NCCO)cc1Br` the figure was 4.48%; with `C=Cn1cc[n+](CC(=O)c2ccc(Br)s2)c1.[Br-]`, 9.47%.

For the compound `Cc1ccc(NC(=O)CN2CCC(NC(=O)C3CCCCC3)CC2)c(Br)c1`, the “hERG current change (%, negative = inhibition) at 10uM” value is -11.2%.

With `CCN(CC(=O)NCCc1ccccc1)S(=O)(=O)c1ccccc1`, the “hERG current change (%, negative = inhibition) at 10uM” value was -13.3%. With `CCOC(=O)C1=C(C)N=C2SC(C)C(=O)N2C1c1ccc(OCC)c(OCC)c1` (centres unmarked) the figure was 1.51%. The value for `CCN(CC)CCCNC(=O)CN1N=C(c2ccc(OC)cc2)CCC1=O` was 14.5%.

The record behind these values is paper PMC4336329 (PLoS ONE, 2015).
